Assay results: the supplement of paper PMC8728848
This is one part of the list.

Key:
Experiment in all cases: glycan array binding signal (z-score within array); higher = stronger binding
Details in all cases: glycan notation: IUPAC condensed, linker removed
[1] = molecular target: Gal(a1-3)Gal(b1-4)GlcNAc(b1-6)GalNAc
Outline: (§1)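 Glycan array data were curated from 3228 arrays in the Consortium for Functional Glycomics database and kept only where the protein sequence was available. Glycan names were converted to IUPAC-condensed notation, and columns mapping to the same glycan were averaged. The binding signal is a within-array Z-score, averaged across arrays of the same protein sequence at different concentrations or buffers and across linkers. Negative Z-scores can be read as non-binding.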

[2] = molecular target: Gal(a1-3)Gal(b1-4)[Fuc(a1-3)]GalNAc
Outline: as §1

[3] = molecular target: Gal(a1-3)Gal(b1-4)[Fuc(a1-3)]GlcNAc
Outline: as §1

[4] = molecular target: Gal(a1-3)Gal(b1-4)[Fuc(a1-3)]GlcNAc(b1-2)Man(a1-3)[Gal(a1-3)Gal(b1-4)[Fuc(a1-3)]GlcNAc(b1-2)Man(a1-6)]Man(b1-4)GlcNAc(b1-4)GlcNAc
Outline: as §1

[5] = molecular target: Gal(a1-3)GalNAc
Outline: as §1

[6] = molecular target: Gal(a1-3)GlcNAc
Outline: as §1

[7] = molecular target: Gal(a1-3)[Gal(a1-4)]Gal(b1-4)GlcNAc
Outline: as §1

[8] = molecular target: Gal(a1-4)Gal(b1-3)GlcNAc(b1-2)Man(a1-3)[Gal(a1-4)Gal(b1-3)GlcNAc(b1-2)Man(a1-6)]Man(b1-4)GlcNAc(b1-4)GlcNAc
Outline: as §1

[9] = molecular target: Gal(a1-4)Gal(b1-4)Gal
Outline: as §1

[10] = molecular target: Gal(a1-4)Gal(b1-4)GalNAc
Outline: as §1

[11] = molecular target: Gal(a1-4)Gal(b1-4)Glc
Outline: as §1

[12] = molecular target: Gal(a1-4)Gal(b1-4)GlcNAc
Outline: as §1

[13] = molecular target: Gal(a1-4)Gal(b1-4)GlcNAc(b1-2)Man(a1-3)[Gal(a1-4)Gal(b1-4)GlcNAc(b1-2)Man(a1-6)]Man(b1-4)GlcNAc(b1-4)GlcNAc
Outline: as §1

[14] = molecular target: Gal(a1-4)Gal(b1-4)GlcNAc(b1-3)Gal(b1-4)Glc
Outline: as §1

[15] = molecular target: Gal(a1-4)GlcNAc
Outline: as §1

[16] = molecular target: Gal(a1-6)Glc
Outline: as §1

[17] = molecular target: Gal(b1-2)Gal
Outline: as §1

[18] = molecular target: Gal(b1-3)Gal
Outline: as §1

[19] = molecular target: Gal(b1-3)Gal(b1-4)GlcNAc
Outline: as §1

[20] = molecular target: Gal(b1-3)GalNAc
Outline: as §1

[21] = molecular target: Gal(b1-3)GalNAc(a1-3)[Fuc(a1-2)]Gal(b1-4)Glc
Outline: as §1

[22] = molecular target: Gal(b1-3)GalNAc(a1-3)[Fuc(a1-2)]Gal(b1-4)GlcNAc
Outline: as §1

[23] = molecular target: Gal(b1-3)GalNAc(b1-3)Gal
Outline: as §1

[24] = molecular target: Gal(b1-3)GalNAc(b1-3)Gal(a1-4)Gal(b1-4)Glc
Outline: as §1

[25] = molecular target: Gal(b1-3)GalNAc(b1-3)Gal(b1-4)Glc
Outline: as §1

[26] = molecular target: Gal(b1-3)GalNAc(b1-3)Gal(b1-4)GlcNAc
Outline: as §1

[27] = molecular target: Gal(b1-3)GalNAc(b1-4)Gal(b1-4)Glc
Outline: as §1

[28] = molecular target: Gal(b1-3)GalNAc(b1-4)[Neu5Ac(a2-3)]Gal(b1-4)Glc
Outline: as §1

[29] = molecular target: Gal(b1-3)GlcNAc
Outline: as §1

[30] = molecular target: Gal(b1-3)GlcNAc(a1-3)Gal(b1-4)GlcNAc
Outline: as §1

[31] = molecular target: Gal(b1-3)GlcNAc(a1-6)Gal(b1-4)GlcNAc
Outline: as §1

[32] = molecular target: Gal(b1-3)GlcNAc(b1-2)Man
Outline: as §1

[33] = molecular target: Gal(b1-3)GlcNAc(b1-2)Man(a1-3)[Gal(b1-3)GlcNAc(b1-2)Man(a1-6)]Man(b1-4)GlcNAc(b1-4)GlcNAc
Outline: as §1

[34] = molecular target: Gal(b1-3)GlcNAc(b1-2)Man(a1-3)[Gal(b1-3)GlcNAc(b1-2)Man(a1-6)]Man(b1-4)GlcNAc(b1-4)[Fuc(a1-6)]GlcNAc
Outline: as §1

[35] = molecular target: Gal(b1-3)GlcNAc(b1-2)Man(a1-3)[GlcNAc(b1-4)][Gal(b1-3)GlcNAc(b1-2)Man(a1-6)]Man(b1-4)GlcNAc(b1-4)GlcNAc
Outline: as §1

[36] = molecular target: Gal(b1-3)GlcNAc(b1-2)[Gal(b1-3)GlcNAc(b1-6)]Man(a1-6)[Gal(b1-3)GlcNAc(b1-2)Man(a1-3)]Man(b1-4)GlcNAc(b1-4)GlcNAc
Outline: as §1

[37] = molecular target: Gal(b1-3)GlcNAc(b1-3)Gal(b1-3)GlcNAc
Outline: as §1

[38] = molecular target: Gal(b1-3)GlcNAc(b1-3)Gal(b1-4)Glc
Outline: as §1

[39] = molecular target: Gal(b1-3)GlcNAc(b1-3)Gal(b1-4)GlcNAc
Outline: as §1

[40] = molecular target: Gal(b1-3)GlcNAc(b1-3)Gal(b1-4)GlcNAc(b1-2)Man(a1-3)[Gal(b1-3)GlcNAc(b1-3)Gal(b1-4)GlcNAc(b1-2)Man(a1-6)]Man(b1-4)GlcNAc(b1-4)GlcNAc
Outline: as §1

[41] = molecular target: Gal(b1-3)GlcNAc(b1-3)Gal(b1-4)GlcNAc(b1-2)[Gal(b1-3)GlcNAc(b1-3)Gal(b1-4)GlcNAc(b1-6)]Man(a1-6)[Gal(b1-3)GlcNAc(b1-3)Gal(b1-4)GlcNAc(b1-2)Man(a1-3)]Man(b1-4)GlcNAc(b1-4)[Fuc(a1-6)]GlcNAc
Outline: as §1

[42] = molecular target: Gal(b1-3)GlcNAc(b1-3)Gal(b1-4)GlcNAc(b1-3)Gal(b1-4)GlcNAc(b1-2)[Gal(b1-3)GlcNAc(b1-3)Gal(b1-4)GlcNAc(b1-3)Gal(b1-4)GlcNAc(b1-6)]Man(a1-6)[Gal(b1-3)GlcNAc(b1-3)Gal(b1-4)GlcNAc(b1-3)Gal(b1-4)GlcNAc(b1-2)Man(a1-3)]Man(b1-4)GlcNAc(b1-4)[Fuc(a1-6)]GlcNAc
Outline: as §1

[43] = molecular target: Gal(b1-3)GlcNAc(b1-3)Gal(b1-4)GlcNAc(b1-6)[Gal(b1-3)GlcNAc(b1-3)]Gal(b1-4)Glc
Outline: as §1

[44] = molecular target: Gal(b1-3)GlcNAc(b1-3)Gal(b1-4)[Fuc(a1-3)]GlcNAc
Outline: as §1

[45] = molecular target: Gal(b1-3)GlcNAc(b1-3)Gal(b1-4)[Fuc(a1-3)]GlcNAc(b1-6)[Gal(b1-3)GlcNAc(b1-3)]Gal(b1-4)Glc
Outline: as §1

B1: XL-35 (Xenopus laevis) (protein)
chain: MLVHILLLLVTGGLSQSCDPVVIVASKNMVKQLDCDKFRNCKEIKDSNEEAQDGIYTLTSPDGISYQTFCDMTTNGGGWTLVASVHENNMAGKCTIGDRWSSQQGNRADYPEGDGNWANYNTFGSAGGATSDDYKNPGYYDIEAYNLGVWHVPNKTPLSVWRNSSLQRYRTTDGILFKHGGNLFSLYRIYPVKYGIGSCSKDSGPTVPVVYDLGSANLTASFYSPGFRSQFTPGYIQFRPINTEKAALALCPGMKMESCNVEHVCIGGGGYFPEADPRQCGDFAAYDFNGYGTKKFNSAGIEITEAAVLLFYL
For B1, which “glycan array binding signal (z-score)” value [1] is on record?
The value was -0.545.

And the “glycan array binding signal (z-score)” value [2]?
Its value is -0.09.

And the “glycan array binding signal (z-score)” value [3]?
The value was 0.411.

What about the “glycan array binding signal (z-score)” value [4] of the same binder?
The value was -0.299.

What about the “glycan array binding signal (z-score)” value [5] of the same binder?
The value was -0.122.

And the “glycan array binding signal (z-score)” value [6]?
Its value is 15.9.

What about the “glycan array binding signal (z-score)” value [7] of the same binder?
Its value is 0.307.

And the “glycan array binding signal (z-score)” value [8]?
The value was 0.019.

What about the “glycan array binding signal (z-score)” value [9] of the same binder?
Its value is -0.113.

And the “glycan array binding signal (z-score)” value [10]?
The value was -0.077.

And the “glycan array binding signal (z-score)” value [11]?
Its value is 0.585.

And the “glycan array binding signal (z-score)” value [12]?
The value was 0.242.

What about the “glycan array binding signal (z-score)” value [13] of the same binder?
Its value is 0.247.

And the “glycan array binding signal (z-score)” value [14]?
The value was -0.416.

And the “glycan array binding signal (z-score)” value [15]?
Its value is -0.192.

What about the “glycan array binding signal (z-score)” value [16] of the same binder?
The value was -0.06.

And the “glycan array binding signal (z-score)” value [17]?
The value was -0.11.

And the “glycan array binding signal (z-score)” value [18]?
The value was -0.213.

What about the “glycan array binding signal (z-score)” value [19] of the same binder?
The value was 0.041.

And the “glycan array binding signal (z-score)” value [20]?
Its value is -0.037.

And the “glycan array binding signal (z-score)” value [21]?
Its value is -0.227.

What about the “glycan array binding signal (z-score)” value [22] of the same binder?
The value was -0.337.

What about the “glycan array binding signal (z-score)” value [23] of the same binder?
Its value is -0.281.

And the “glycan array binding signal (z-score)” value [24]?
The value was -0.2.

And the “glycan array binding signal (z-score)” value [25]?
Its value is -0.066.

And the “glycan array binding signal (z-score)” value [26]?
The value was -0.143.

What about the “glycan array binding signal (z-score)” value [27] of the same binder?
The value was -0.037.

And the “glycan array binding signal (z-score)” value [28]?
The value was 0.241.

And the “glycan array binding signal (z-score)” value [29]?
The value was -0.254.

What about the “glycan array binding signal (z-score)” value [30] of the same binder?
Its value is -0.448.

What about the “glycan array binding signal (z-score)” value [31] of the same binder?
The value was -0.171.

And the “glycan array binding signal (z-score)” value [32]?
The value was -0.096.

And the “glycan array binding signal (z-score)” value [33]?
The value was -0.375.

And the “glycan array binding signal (z-score)” value [34]?
Its value is 0.327.

And the “glycan array binding signal (z-score)” value [35]?
Its value is -0.211.

And the “glycan array binding signal (z-score)” value [36]?
The value was 0.027.

What about the “glycan array binding signal (z-score)” value [37] of the same binder?
The value was -0.035.

What about the “glycan array binding signal (z-score)” value [38] of the same binder?
Its value is 0.019.

And the “glycan array binding signal (z-score)” value [39]?
Its value is -0.474.

What about the “glycan array binding signal (z-score)” value [40] of the same binder?
Its value is 0.225.

What about the “glycan array binding signal (z-score)” value [41] of the same binder?
The value was 0.717.

And the “glycan array binding signal (z-score)” value [42]?
Its value is 0.54.

What about the “glycan array binding signal (z-score)” value [43] of the same binder?
The value was -0.214.

And the “glycan array binding signal (z-score)” value [44]?
Its value is -0.32.

What about the “glycan array binding signal (z-score)” value [45] of the same binder?
Its value is -0.425.
